Assay results as given in publication PMC4336329 (PLoS ONE, 2015).
Among all 310,000 compounds or so, about 14,000 (4.5%) showed an effect of 50% or more. Effects have a minus sign here. The list shows a part of the results.

Biological target: human ether-à-go-go-related gene (hERG) potassium channel (human, UniProt Q12809)
Assay: primary screen, population patch clamp on CHO cells stably expressing hERG
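Also: peak tail current of the secondary pulse compared with the same well before compound.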

human ether-à-go-go-related gene (hERG) potassium channel, sequence (Q12809 whole entry, looked up): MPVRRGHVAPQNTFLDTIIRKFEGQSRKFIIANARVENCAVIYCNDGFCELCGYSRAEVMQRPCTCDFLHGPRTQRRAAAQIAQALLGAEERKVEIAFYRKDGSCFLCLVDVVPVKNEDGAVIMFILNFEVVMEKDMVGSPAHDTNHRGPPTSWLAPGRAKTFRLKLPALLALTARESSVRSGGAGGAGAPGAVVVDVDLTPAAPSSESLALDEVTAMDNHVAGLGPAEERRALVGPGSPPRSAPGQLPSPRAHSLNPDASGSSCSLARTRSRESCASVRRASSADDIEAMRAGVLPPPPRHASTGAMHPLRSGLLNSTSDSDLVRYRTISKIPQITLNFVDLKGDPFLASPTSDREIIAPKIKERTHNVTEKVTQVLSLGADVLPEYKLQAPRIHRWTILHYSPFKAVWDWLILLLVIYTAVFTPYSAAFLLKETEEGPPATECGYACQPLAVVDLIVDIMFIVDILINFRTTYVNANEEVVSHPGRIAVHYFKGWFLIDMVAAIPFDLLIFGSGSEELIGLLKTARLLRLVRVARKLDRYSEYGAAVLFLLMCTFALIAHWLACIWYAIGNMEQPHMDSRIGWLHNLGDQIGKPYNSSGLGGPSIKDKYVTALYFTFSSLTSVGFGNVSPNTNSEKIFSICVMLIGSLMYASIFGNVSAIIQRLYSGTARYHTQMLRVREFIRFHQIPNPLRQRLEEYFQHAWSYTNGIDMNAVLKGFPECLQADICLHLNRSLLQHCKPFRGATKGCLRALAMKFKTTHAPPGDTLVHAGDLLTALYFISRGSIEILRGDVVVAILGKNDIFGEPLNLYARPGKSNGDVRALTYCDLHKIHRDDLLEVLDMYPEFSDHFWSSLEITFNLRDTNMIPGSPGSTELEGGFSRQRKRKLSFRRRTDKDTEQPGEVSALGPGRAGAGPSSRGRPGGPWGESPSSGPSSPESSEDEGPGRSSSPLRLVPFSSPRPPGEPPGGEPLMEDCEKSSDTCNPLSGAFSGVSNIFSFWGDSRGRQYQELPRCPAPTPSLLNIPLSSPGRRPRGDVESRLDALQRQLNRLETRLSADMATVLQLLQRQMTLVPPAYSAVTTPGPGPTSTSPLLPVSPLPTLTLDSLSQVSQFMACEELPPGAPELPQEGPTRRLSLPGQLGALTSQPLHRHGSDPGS

Going from `COC(=O)c1sc(NC(=O)C2CCCO2)c(C(=O)OC)c1C` (stereo not shown) to `COc1cc(OC)cc(C(=O)NNC(=O)C2CCCC2)c1`, the “hERG current change (%, negative = inhibition) at 10uM” value rises from -8.24% to 6.14%.

Compared with `CN1CCN(C(=O)CCC(=O)c2ccc(F)cc2)CC1`, `CCCS(=O)(=O)N1CCN(C(=O)c2cccnc2)CC1` is higher in “hERG current change (%, negative = inhibition) at 10uM” value: 8.49% for the first, 10.6% for the second.

Compared with `O=C(NN=C1CCC(c2ccccc2)CC1)c1ccccc1-n1cccc1` (stereo not shown), `O=C(NC(C(=O)N/N=C/c1cccnc1)c1n[nH]c(=O)c2ccccc12)c1ccccc1` (stereo not shown) is higher in “hERG current change (%, negative = inhibition) at 10uM” value: 17.3% for the first, 21.8% for the second.

Going from `CCn1c(=O)c2ccccc2n2c(SCC(=O)NCc3cccs3)nnc12` to `NC(=O)CSc1nnc(Cn2c(=O)sc3ccccc32)n1-c1cccc(Cl)c1`, the “hERG current change (%, negative = inhibition) at 10uM” value rises from -2.54% to 13.4%.

Going from `CCCN(C(=O)COC(=O)c1nc2nc(C)cc(C)n2n1)C1CCS(=O)(=O)C1` (stereo not shown) to `COc1cc(C(C)=O)ccc1COc1ccc(C(=O)OCC(=O)NC2CCS(=O)(=O)C2)cc1OC` (stereo not shown), the “hERG current change (%, negative = inhibition) at 10uM” value falls from 8.71% to 7.35%.

Going from `O=C1[C@@H]2[C@H](C(=O)N1O)[C@H]1C=C[C@@H]2C1` to `COCCCN1CC23C=CC(O2)C(C(=O)O)C3C1=O` (stereo not shown), the “hERG current change (%, negative = inhibition) at 10uM” value rises from -5.3% to 3.86%.

First: CCCCOC(=O)Sc1nc2ccccc2o1
Second: CCC/C(=N\O)c1c[nH]c2ccccc12
The “hERG current change (%, negative = inhibition) at 10uM” value of the first is higher: 16.2% for the first, 6% for the second.

Compared with `CCc1ccc(-n2c(C)n[nH]c2=S)cc1`, `COC(=O)c1ccc(CSc2nc3c(c(=O)n2-c2ccc(C)cc2)SCC3)o1` is lower in “hERG current change (%, negative = inhibition) at 10uM” value: 12.5% for the first, -5.12% for the second.

Going from `CCOc1cccc(/C(O)=C2/C(=O)C(=O)N(Cc3ccco3)C2c2ccncc2)c1` (stereo not shown) to `O=c1c2ccccc2nnn1CSc1nnc(COc2ccc(Cl)cc2)n1Cc1ccco1`, the “hERG current change (%, negative = inhibition) at 10uM” value falls from -0.69% to -22.2%.

Compared with `Cc1ccccc1OCC(=O)NCCCNC(=O)c1ccco1`, `CCOC(=O)c1ccc(NC(=O)COc2ccccc2CNCCO)cc1` is lower in “hERG current change (%, negative = inhibition) at 10uM” value: 3.07% for the first, -24% for the second.

Compared with `CCOC(=O)c1ccc(NC(=O)NC2CC3CCC(C2)N3C(=S)NC)cc1` (stereo not shown), `CCN(CC)c1ccc(NC(=O)C2CC3CCC2C3)cc1` (stereo not shown) is lower in “hERG current change (%, negative = inhibition) at 10uM” value: 4.72% for the first, -1.16% for the second.

Going from `COCCSc1nnc(NS(=O)(=O)c2ccc(C)cc2)s1` to `CCC(C)Sc1nnc(NS(=O)(=O)Cc2ccccc2)s1` (stereo not shown), the “hERG current change (%, negative = inhibition) at 10uM” value rises from 8.07% to 18.7%.

Going from `COc1ccc(CCNC(=O)CC2COc3ccccc3O2)cc1OC` (stereo not shown) to `CCN(c1ccccc1)S(=O)(=O)c1ccc(C(=O)N(C)CCc2ccc(OC)c(OC)c2)cc1`, the “hERG current change (%, negative = inhibition) at 10uM” value falls from -7.91% to -13.8%.

Going from `COc1ccc(C(=O)CC(=O)c2ccccc2)cc1` to `O=C(O/N=C(/c1ccccc1)c1ccncc1)c1ccc(F)cc1`, the “hERG current change (%, negative = inhibition) at 10uM” value rises from 13.8% to 17.1%.

Going from `Cc1cc(OCC(=O)Nn2cnnc2)c(C)cc1Br` to `COc1cc(Cl)cc(C#N)c1OCC(=O)O`, the “hERG current change (%, negative = inhibition) at 10uM” value falls from 12.6% to 11%.

First: COc1c(C(=O)NNC(=O)c2ccccc2Cl)csc1Br
Second: O=C(CCc1ccccc1)NNC(=O)Nc1ccc(F)c(Cl)c1
The “hERG current change (%, negative = inhibition) at 10uM” value of the first is lower: -10.4% for the first, -8.27% for the second.

First: O=c1cc(O)nc(SCc2ccccc2)[nH]1
Second: O=c1[nH]c(=O)n(Cc2ccccc2)c2nc(-c3ccco3)cc(C(F)(F)F)c12
The “hERG current change (%, negative = inhibition) at 10uM” value of the first is lower: 4.74% for the first, 29.6% for the second.

Going from `O=[N+]([O-])c1ccc(CSc2nnc(SCc3ccc(Cl)cc3)s2)cc1` to `Cc1ccc(S(=O)(=O)NC(C)C(=O)NCc2ccc(Cl)cc2)cc1` (stereo not shown), the “hERG current change (%, negative = inhibition) at 10uM” value falls from 16.8% to -27.5%.

First: Cc1ccc(N2CC(C(=O)Nc3ccc(S(=O)(=O)Nc4nccc(C)n4)cc3)CC2=O)cc1 (stereo not shown)
Second: CC(C)c1ccc(NS(=O)(=O)c2ccc(N3C(=O)CCC3=O)cc2)cc1
The “hERG current change (%, negative = inhibition) at 10uM” value of the first is higher: 3.17% for the first, 1.76% for the second.

First: O=C(Nc1ccc(OC(=O)c2ccncc2)cc1)c1ccncc1
Second: CCOc1cc(/C=C(\C#N)C(=O)Nc2cccc(C(=O)O)c2)cc(Br)c1OC(=O)c1ccc(OC)cc1
The “hERG current change (%, negative = inhibition) at 10uM” value of the first is lower: 11.4% for the first, 12.9% for the second.

Going from `CCN(CC(=O)Nc1c(F)cccc1F)C(=O)c1csc2c1CCCC2` to `Cn1c(NC(=O)c2ccc(F)c(F)c2)cc(=O)n(C)c1=O`, the “hERG current change (%, negative = inhibition) at 10uM” value rises from 7.01% to 7.06%.

First: c1coc(CN=C2NC(=NCc3ccco3)c3ccccc32)c1
Second: CCOC(=O)c1cc(OC(=O)c2ccccc2OC)n(-c2ccccc2)n1
The “hERG current change (%, negative = inhibition) at 10uM” value of the first is lower: -66.4% for the first, -6.17% for the second.

First: COc1cccc(C2NC(=O)NC(C)=C2C(=O)Nc2cccc(C)c2C)c1 (stereo not shown)
Second: COc1ccc(OC)c(NC(=O)c2cccc(N3C(=O)C4C5C=CC(C6CC56)C4C3=O)c2)c1 (stereo not shown)
The “hERG current change (%, negative = inhibition) at 10uM” value of the first is higher: 5.71% for the first, -3.87% for the second.

Compared with `Cc1ccc(Nc2nc(CSc3nnc(-c4ccncc4)n3-c3ccccc3C)cs2)cc1`, `Cc1ccc(NC(=O)Cc2nnc(SCC(=O)Nc3nncs3)n2C)cc1` is higher in “hERG current change (%, negative = inhibition) at 10uM” value: -6.91% for the first, -1.48% for the second.

Compared with `CCC1(C)CC(=O)N(c2ccc(F)c(Cl)c2)C(=O)C1`, `CC1(C)CC(=O)C2=C(C1)N(c1ccccc1)C(N)=C(C#N)C2c1ccsc1` (stereo not shown) is lower in “hERG current change (%, negative = inhibition) at 10uM” value: 19.8% for the first, -9.75% for the second.

First: COc1ccc2c(c1)c(CC(=O)O)c(C)n2C(=O)c1ccc(Cl)cc1
Second: Cc1ccc(NC(=O)c2cc(S(=O)(=O)NCCc3ccccc3)ccc2F)cc1Cl
The “hERG current change (%, negative = inhibition) at 10uM” value of the first is lower: 6.45% for the first, 8.85% for the second.

Going from `CC/C(O)=C1\C(=O)CC(C)(C)CC1=NCCc1nc2ccccc2[nH]1` to `CN(C)CCNc1nc2c(c(=O)[nH]c(=O)n2C)n1CCOc1ccccc1`, the “hERG current change (%, negative = inhibition) at 10uM” value falls from 7.76% to -5.88%.

First: O=C1c2ccccc2S(=O)(=O)c2cc(C(=O)N3CCN(c4ncccn4)CC3)ccc21
Second: CCN(CC)S(=O)(=O)c1ccc(N2CCCC2)c(NC(=O)C2=NN(c3ccccc3)C(=O)CC2)c1
The “hERG current change (%, negative = inhibition) at 10uM” value of the first is higher: 3.25% for the first, -32.3% for the second.

Compared with `COc1cc(C(F)(F)F)nc2ccc(C#CCOC(=O)Nc3ccccc3)cc12`, `COc1ccccc1/C=N/NC(=O)c1nnn(-c2nonc2N)c1-c1ccccc1` is lower in “hERG current change (%, negative = inhibition) at 10uM” value: 13.7% for the first, 10.3% for the second.

First: CC(Oc1ccc(Cl)cc1Cl)/C(N)=N/O (stereo not shown)
Second: N/C(=N\S(=O)(=O)c1ccc(Cl)cc1)N1CCOCC1
The “hERG current change (%, negative = inhibition) at 10uM” value of the first is lower: 8.02% for the first, 8.51% for the second.

Going from `Cc1cc(=O)oc2c(CN3CCCC3)c(O)ccc12` to `CN(C)Cc1c(O)ccc2cc(-c3nc4ccccc4n3C)c(=O)oc12`, the “hERG current change (%, negative = inhibition) at 10uM” value falls from 28.3% to 10.2%.

First: COC(=O)CCN(C(=O)c1cc(OC)c(OC)c(OC)c1)c1ccccn1
Second: CC(C)(C)OC(=O)NCCC(=O)N/N=C/c1ccc2ncccc2c1
The “hERG current change (%, negative = inhibition) at 10uM” value of the first is lower: 6.81% for the first, 10.6% for the second.

Going from `COC(=O)c1sc(-c2cccs2)cc1NC(=O)/C=C/C(=O)O` to `O=C1OCc2ccc(NC(=O)c3sccc3Cl)cc21`, the “hERG current change (%, negative = inhibition) at 10uM” value rises from 7.29% to 8.11%.

Going from `COc1ccc(-c2csc3nc(-c4ccc(C)cc4)oc(=O)c23)cc1OC` to `Cc1cc(/C=C2/C(=N)N3C(=NC2=O)SN=C3S(C)(=O)=O)c(C)n1-c1ccc(F)cc1`, the “hERG current change (%, negative = inhibition) at 10uM” value rises from 3.27% to 47.6%.

Compared with `NS(=O)(=O)c1ccc(CCNC(=O)CCCn2ncn3c(cc4occc43)c2=O)cc1`, `O=C(NCCN1C(=O)S/C(=C\c2cccnc2)C1=O)c1cc(S(=O)(=O)N2CCOCC2)ccc1F` is lower in “hERG current change (%, negative = inhibition) at 10uM” value: 24.3% for the first, -59% for the second.

Compared with `CC1CC1c1ccc(/C=C(\C#N)C(=O)Nc2ccccc2Cl)o1` (stereo not shown), `COC(=O)c1ccc(Cn2nnc3c(=O)[nH]c(C4CCCN(S(=O)(=O)c5ccccc5Cl)C4)nc32)cc1` (stereo not shown) is higher in “hERG current change (%, negative = inhibition) at 10uM” value: -1.1% for the first, 10.9% for the second.

First: COC(=O)c1scc(C)c1N/N=C(\C)c1cc(F)c(Cl)cc1F
Second: CCOC(=O)c1cn(-c2ccc(F)c(F)c2F)c2c(F)c(F)c(F)cc2c1=O
The “hERG current change (%, negative = inhibition) at 10uM” value of the first is higher: 16.6% for the first, 13.4% for the second.

Going from `CN(C)c1ccc(/C=C/[N+](=O)[O-])cc1` to `CN(C)P(=O)(Nc1cccc2ccccc12)Nc1cccc2ccccc12`, the “hERG current change (%, negative = inhibition) at 10uM” value rises from -1.81% to 18%.

Compared with `N#Cc1ccccc1/C=N/Nc1nc(-c2ccccc2)c2cc(Cl)ccc2n1`, `CCOc1ccccc1N1C(=O)CC(Sc2n[nH]c(-c3ccccc3)n2)C1=O` (stereo not shown) is higher in “hERG current change (%, negative = inhibition) at 10uM” value: -46.3% for the first, 11.5% for the second.

First: CC1CCN(c2ccc3nnc(CCC(=O)Nc4cccc(F)c4)n3n2)CC1
Second: COc1cccc(NC(=O)NC2CCN(Cc3nnnn3Cc3ccc4c(c3)OCO4)CC2)c1
The “hERG current change (%, negative = inhibition) at 10uM” value of the first is lower: -38.1% for the first, -23.3% for the second.

Going from `Cc1cc(C)cc(OCC(=O)OCC(=O)NC2CCCCCC2)c1` to `Cc1nc2cc(N)ccc2n1C1CCCCC1.Cl`, the “hERG current change (%, negative = inhibition) at 10uM” value falls from 21.1% to -6.16%.

Compared with `N#Cc1ccc(CSc2nc(N)cc(N)n2)cc1`, `Brc1ccc(-c2noc(COc3ccc4c(c3)CCC4)n2)o1` is higher in “hERG current change (%, negative = inhibition) at 10uM” value: 4.35% for the first, 6.23% for the second.

First: Nc1nc2nccc(-c3ccco3)n2n1
Second: OCCC1CN(Cc2cccn2-c2ccccn2)CCN1C1CCCC1 (stereo not shown)
The “hERG current change (%, negative = inhibition) at 10uM” value of the first is higher: 21.1% for the first, -18.9% for the second.

Going from `O=C(Cn1ccc([N+](=O)[O-])n1)N1CCCCC1` to `CCOc1cc(NC(=O)Nc2ccc(F)cc2)c(OCC)cc1NC(=O)CC`, the “hERG current change (%, negative = inhibition) at 10uM” value rises from -8.27% to 19.2%.
